Screen size: about 350,000 compounds; about 9,900 (2.8%) were called active. Inconclusive results, whose numbers are uncertain, are shown with a selection of clear calls. The call rests on the fitted dose curve; in most records, active means well fitted activation curve with a large enough effect; inconclusive means small, poorly fitted or top-dose-only effect; inactive means no such curve, though single readings can be large or run the other way. Potencies of inconclusive entries are left out as doubtful fits.
Assay: A quantitative high throughput screen for small molecules that induce DNA re-replication in MCF 10a normal breast cells. Further: nearly all actives have a fitted effect of over 50% in size.
Conditions: MCF 10A DNA re-replication, Hoechst nuclear intensity, 48 h; series mostly up to 46.1 µM
For `CN(C)CCCNC(=O)c1cc(S(=O)(=O)N2CCOCC2)ccc1F`, the Potency was “inactive”. With `CC(NC(=O)CSc1ccccc1)c1ccccc1` (centres undefined) the Potency was “inactive”. For `CC(=O)OC(C)(C)/C=C/C(=O)[C@](C)(O)C1[C@H](O)C[C@@]2(C)C3CC=C4C(C=C(O[C@@H]5O[C@H](CO)[C@@H](O)[C@H](O)[C@H]5O)C(=O)C4(C)C)[C@]3(C)C(=O)C[C@]12C` (some centres undefined), the Potency was active: 5.17 µM. With `C/C(=N\NC(=O)c1ccc(CN(C)S(=O)(=O)c2ccc(C)cc2)cc1)c1ccc(OC(F)F)cc1` the Potency was inconclusive [activator, single point]. For `COc1ccccc1NS(=O)(=O)c1ccc(Cl)c(NC(=S)NC(=O)C2CCCC2)c1`, the Potency was inconclusive [activator, partial curve, poor fit]. For `Cc1ccc(-c2nnc(SCC(=O)N/N=C/c3ccc(C)s3)n2-c2ccc(C)cc2)cc1`, the Potency was inconclusive [activator, single point]. With `Cc1cc(C)c2sc(N(CCCN(C)C)C(=O)c3ccc(S(=O)(=O)N(C)C4CCCCC4)cc3)nc2c1` the Potency was inconclusive [activator, single point]. With `Cc1cc(Oc2ccc(Br)cc2)nc(SCC(=O)c2ccccc2)n1` the Potency was inconclusive [activator, partial curve]. For `Cc1ccc(S(=O)(=O)Cc2cc(F)c([N+](=O)[O-])cc2[N+](=O)[O-])cc1`, the Potency was inconclusive [activator, single point]. For `O=C(/C=C/Nc1ccc(Nc2ccccc2)cc1)c1cccs1`, the Potency was inconclusive [activator, partial curve]. In the case of `CNc1ccccc1C(=O)OC(C)C(=O)Nc1ccc(Cl)cn1` (centres undefined), the Potency is reported as inconclusive [activator, single point]. In the case of `CC(NC(=S)NCc1ccc(F)cc1)C12CC3CC(CC(C3)C1)C2` (centres undefined), the Potency is reported as inconclusive [activator, partial curve, poor fit]. In the case of `CCCC(=O)Nc1ccc2c(c1)nc(CN1CCN(C(=O)OCC)CC1)n2CC`, the Potency is reported as active: 7.31 µM. In the case of `O=C(CSc1nc2ccccc2[nH]1)N1CCN(c2ccccc2)CC1`, the Potency is reported as “inactive”. For `O=[N+]([O-])c1ccc(Oc2ccc(F)cc2Br)c2ccncc12`, the Potency was inconclusive [activator, single point]. With `C[n+]1ccccc1/C=C1\Sc2ccccc2N1CCO` the Potency was “inactive”. In the case of `O=C(CCS(=O)(=O)c1cccc2nonc12)NCCc1ccccc1`, the Potency is reported as inconclusive [activator, partial curve, poor fit]. With `COc1ccc(NS(=O)(=O)c2cc([N+](=O)[O-])ccc2N/N=C\c2c(C)[nH]c3ccccc23)cc1` the Potency was active: 9.2 µM. With `COc1ccc(C(=O)CNc2ccc(C)cc2C)cc1` the Potency was “inactive”. In the case of `O=C(C1CCCN(S(=O)(=O)c2cccc3nsnc23)C1)N1CCc2ccccc21` (centres undefined), the Potency is reported as inconclusive [activator, single point]. For `O=C(CCCCCCCCCCC(=O)NCc1cccnc1)NCc1cccnc1`, the Potency was “inactive”. In the case of `O=C(c1cccs1)N1N=C(c2ccccc2)CC1c1ccccc1O` (centres undefined), the Potency is reported as inconclusive [activator, single point]. With `COC(=O)c1cccc(Nc2nc(-c3ccncc3)nc3ccccc23)c1` the Potency was “inactive”. For `COc1cc(/C=C/C(=O)c2ccc([N+](=O)[O-])o2)ccc1O`, the Potency was inconclusive [activator, partial curve, poor fit]. With `Cc1ccc(C(=O)N(CC(=O)NC2CCCC2)c2ccccc2C)s1` the Potency was “inactive”. With `C=CCNC(=O)c1cc(-c2ccncc2)nc2c(C)cc(C)cc12` the Potency was inconclusive [activator, single point]. With `CCN(CC)C1=NS(=O)(=O)c2cc([N+](=O)[O-])ccc21` the Potency was inconclusive [activator, single point]. With `Cc1nc2c(sc3nc4c(cc32)COC(C)(C)C4)c(=O)n1CC(=O)NCc1ccco1` the Potency was inconclusive [activator, single point]. For `CC(Sc1nnc2c(n1)[nH]c1ccccc12)C(=O)N(C)C1CCCCC1` (centres undefined), the Potency was inconclusive [activator, single point]. For `CCCCC(=O)Nc1cc([N+](=O)[O-])ccc1Cl`, the Potency was inconclusive [activator, partial curve, poor fit]. With `O=C1C(Nc2ccc(O)cc2)=C/C(=N/S(=O)(=O)c2cccs2)c2ccccc21` the Potency was inconclusive [activator, full curve, poor fit]. In the case of `O=C(c1c[nH]c(C(=O)C(Cl)(Cl)Cl)c1)c1c(F)cccc1F`, the Potency is reported as inconclusive [activator, single point]. In the case of `O=S(=O)(Cc1ccccc1)NCC1CCCO1` (centres undefined), the Potency is reported as inconclusive [activator, partial curve, poor fit]. With `CC1C(=O)N2CCCc3cc(NC(=O)C(=O)NCCc4ccc(F)cc4)cc1c32` (centres undefined) the Potency was inconclusive [activator, single point]. With `Cc1ccc(CNC(=O)c2ccc3c(=O)[nH]c4c(C(=O)NCC5CCCO5)sc(=S)n4c3c2)cc1` (centres undefined) the Potency was inconclusive [activator, single point]. With `CCOC(=O)C/C(=N\Nc1ncnc2ccccc12)c1ccccc1` the Potency was “inactive”. With `O=C(COc1ccccc1)Nc1cc(Cl)ccc1Cl` the Potency was “inactive”. For `CCOC(=O)C1=C(C)NC(=O)NC1/C=C\c1ccccc1` (centres undefined), the Potency was inconclusive [activator, single point]. With `CC(C)N1CCN(Cc2nc3ccccc3s2)CC1CCO` (centres undefined) the Potency was “inactive”. In the case of `OC(COc1ccccc1)CN1CCC(Cc2ccccc2)CC1` (centres undefined), the Potency is reported as inconclusive [activator, single point]. For `COc1ccc(/C=C2\SC(=O)N(CC(=O)Nc3ccc(F)cc3)C2=O)cc1O`, the Potency was active: 25.9 µM. In the case of `CCOC(=O)C(c1ccccc1)C(Nc1ccc(Cl)c(Cl)c1)c1ccccn1` (centres undefined), the Potency is reported as inconclusive [activator, single point]. In the case of `Cc1ccc(S(=O)(=O)NCCC(=O)N2CCC(Cc3ccccc3)CC2)cc1`, the Potency is reported as inconclusive [activator, partial curve, poor fit]. With `CCOC(=O)C1(C)Oc2ccccc2C(c2ccc(OC)cc2)=C1C(=O)OC` (centres undefined) the Potency was inconclusive [activator, single point]. In the case of `COc1ccc(/C=C/c2ccc(=O)n(Cc3ccccc3)n2)cc1`, the Potency is reported as active: 20.6 µM. With `CNC(=S)N(Cc1ccc(OC)cc1)Cc1cc2cccc(C)c2[nH]c1=O` the Potency was inconclusive [activator, single point]. For `CCSc1nc2ccccc2n1Cc1cccc([N+](=O)[O-])c1`, the Potency was inconclusive [activator, partial curve, poor fit]. In the case of `Cc1cc(C)c(NC(=O)C2CC(=O)N(C3CCCC3)C2)c(C)c1` (centres undefined), the Potency is reported as “inactive”. With `NC(=O)COC(=O)c1c2c(nc3ccccc13)CCC2` the Potency was inconclusive [activator, single point]. With `COc1ccc(C(=O)COC(=O)c2ccc3c(c2)NC(=O)CS3)c(OC)c1` the Potency was “inactive”. With `Cc1cc(C)cc(OC(=O)CS(=O)c2ccc(C(F)(F)F)cc2[N+](=O)[O-])c1` (centres undefined) the Potency was active: 11.6 µM. In the case of `CCOc1ccc(C2=Nn3c(nnc3-c3ccccc3)SC2)cc1Cl`, the Potency is reported as “inactive”. With `CNCc1ccccc1Sc1cccc2ccccc12` the Potency was inconclusive [activator, single point]. For `O=C(Oc1cccc2cccnc12)c1ccc(N2C(=O)C3C4CCC(C4)C3C2=O)cc1` (centres undefined), the Potency was active: 14.6 µM. With `CC(=O)[C@@]1(O)CC[C@H]2[C@H]3C[C@@H](C)C4=CC(=O)C=C[C@]4(C)[C@@]3(F)[C@@H](O)C[C@]21C` the Potency was “inactive”. For `C(=N\N1CCN(C2c3ccccc3-c3ccccc32)CC1)/c1ccccn1`, the Potency was inconclusive [activator, full curve]. In the case of `COc1ccccc1/C=C/C(=O)NC(=S)Nc1ccc(S(=O)(=O)N(C)c2ccccc2)cc1`, the Potency is reported as inconclusive [activator, partial curve]. For `CCCc1nc(SCc2ccc(OCC)cc2)n[nH]1`, the Potency was “inactive”. With `COc1ccccc1C(=O)NCCn1cc(SCC(=O)Nc2cc(C)on2)c2ccccc21` the Potency was inconclusive [activator, single point]. For `COc1ccc2c(Cl)c(C(=O)NN)sc2c1`, the Potency was inconclusive [activator, single point]. For `CCOC(=O)c1c(NC(=O)/C=C/c2ccc3c(c2)OCO3)sc(C)c1CC`, the Potency was active: 8.2 µM. In the case of `CCN(CC)CCCC(C)NC(=O)c1cc(=O)c2ccccc2o1` (centres undefined), the Potency is reported as “inactive”. In the case of `c1ccc(CNc2nc(CN3CCOCC3)nc3scc(-c4ccccc4)c23)cc1`, the Potency is reported as “inactive”. For `CCCCC(c1nnnn1CC1CCCO1)N1CCN(c2cc(Cl)ccc2C)CC1` (centres undefined), the Potency was inconclusive [activator, partial curve]. With `COC(=O)/C=C1/N/C(=N\c2nc(C)cc(C)n2)N(c2ccc(C)c(C)c2)C1=O` the Potency was inconclusive [activator, single point]. In the case of `CCOc1ccc(CNC(=O)CCc2cn(C)c3ccccc23)cc1OC`, the Potency is reported as inconclusive [activator, single point]. In the case of `CCOc1ccc2nc(N3CCCC(C(=O)NCCCN4C(C)CCCC4C)C3)sc2c1` (centres undefined), the Potency is reported as inconclusive [activator, single point]. With `CC(NC(=O)Cn1ncc(Cl)c(Cl)c1=O)C12CC3CC(CC(C3)C1)C2` (centres undefined) the Potency was active: 3.66 µM. With `Cc1csc(NC(=O)CSc2ccccc2F)n1` the Potency was inconclusive [activator, single point].

— PubChem BioAssay AID624296 (National Center for Advancing Translational Sciences (NCATS), 2012)
Potency means the concentration at half of the fitted maximal effect; tags describe the fitted curve by direction and shape.
